# Source: PubChem BioAssay (NCI)
# Values joined by “and” are separate entries in the source; they are usually repeats but may differ in a detail not shown here. Identical values can stand only once.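 How tested: cells in 96-well plates exposed to compound for 48 hours at five concentrations. GI50: concentration for 50% inhibition of growth. TGI marks complete inhibition of growth.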
# Test system: NCI-H322M lung
# Assay: growth of human tumour cells (NCI), 48 h
SMILES,GI50,TGI
C#C[C@]1(O)CC[C@H]2[C@@H]3CC=C4c5sc(-c6cccc(O)c6)nc5CC[C@]4(C)[C@H]3CC[C@@]21C,1.69 µM,14.4 µM
O=C(NNc1nc2cc(F)c(F)cc2n2cccc12)c1cccnn1,0.237 µM and 0.213 µM,30 µM and 37.1 µM
CS(=O)c1nccc(-c2c(-c3ccc(F)c(OCCc4ccc(F)cc4)c3)nc3sccn23)n1 (stereo unspecified),15 µM,29.2 µM
